± gives the standard error. Variants at the floor of the assay are shown more often than the library holds them.
B1: glmS ribozyme (parent)
chain: AUAAAAGCGCCAGAACUACAGAAAUGUAGUUGACGAGGAGGAGGUUUAUCGAAUUUUCGGCGGAUGCCUCCAAA

What was measured:
Details in all cases: with glucosamine-6-phosphate
glucosamine-6-phosphate [1] = variants of: B1; test: self-cleavage kobs at 40 uM GlcN6P; higher = faster cleavage; RNA array
Method in brief: (§1)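 Barcoded ribozyme variants, transcribed in situ by E. coli RNA polymerase on sequenced MiSeq chips, were followed via a hybridised Cy3 probe at 37 °C. Glucosamine-6-phosphate ranged from 40 μM to 10 mM in HEPES/KCl/Mg(OAc)2 buffer. kobs came from decay fits to per-tile medians, and kcat and KM from weighted Michaelis–Menten fits.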

glucosamine-6-phosphate [2] = variants of: B1; test: self-cleavage kobs at 640 uM GlcN6P; higher = faster cleavage; RNA array
Method in brief: as §1

glucosamine-6-phosphate [3] = variants of: B1; test: self-cleavage kobs at 10000 uM GlcN6P; higher = faster cleavage; RNA array
Method in brief: as §1

glucosamine-6-phosphate [4] = variants of: B1; test: self-cleavage kobs at 160 uM GlcN6P; higher = faster cleavage; RNA array
Method in brief: as §1

glucosamine-6-phosphate [5] = variants of: B1; test: self-cleavage kobs at 2500 uM GlcN6P; higher = faster cleavage; RNA array
Method in brief: as §1

Variant	self-cleavage kobs at 40 uM GlcN6P (glucosamine-6-phosphate [1]) [s⁻¹]	self-cleavage kobs at 640 uM GlcN6P (glucosamine-6-phosphate [2]) [s⁻¹]	self-cleavage kobs at 10000 uM GlcN6P (glucosamine-6-phosphate [3]) [s⁻¹]	self-cleavage kobs at 160 uM GlcN6P (glucosamine-6-phosphate [4]) [s⁻¹]	self-cleavage kobs at 2500 uM GlcN6P (glucosamine-6-phosphate [5]) [s⁻¹]
G7U A48C	< 1e-05	< 1e-05	< 1e-05	–	–
G7U A53U	< 1e-05	< 1e-05	< 1e-05	< 1e-05	< 1e-05
G7U A64G	< 1e-05	–	< 1e-05	–	< 1e-05
G7U C10G	< 1e-05	< 1e-05	< 1e-05	–	< 1e-05
G7U C10G A12U U65G C68G	7.58e-05 ± 2.2e-05	–	5.57e-05 ± 1.5e-05	–	–
G7U C11A	< 1e-05	< 1e-05	< 1e-05	< 1e-05	–
G7U C11G G41U G44U	< 1e-05	–	< 1e-05	–	–
G7U C16A	< 1e-05	–	< 1e-05	–	< 1e-05
G7U C16G	< 1e-05	< 1e-05	< 1e-05	–	–
G7U C16U G38C	< 1e-05	< 1e-05	–	< 1e-05	< 1e-05
G7U C50G	0.000281 ± 8.4e-05	–	–	0.000551 ± 0.00024	0.0008 ± 0.00024
G7U C50U	< 1e-05	–	< 1e-05	–	–
G7U C58A	< 1e-05	< 1e-05	< 1e-05	–	< 1e-05
G7U C58U	< 1e-05	< 1e-05	< 1e-05	–	< 1e-05
G7U C61G	< 1e-05	< 1e-05	–	< 1e-05	< 1e-05
G7U C67U	< 1e-05	–	–	< 1e-05	< 1e-05
G7U G13C C67U	< 1e-05	–	< 1e-05	–	–
G7U G13C C71U	< 1e-05	–	< 1e-05	–	–
G7U G29A	< 1e-05	< 1e-05	< 1e-05	< 1e-05	< 1e-05
G7U G29A A48G	< 1e-05	–	< 1e-05	–	–
G7U G29C C61U	< 1e-05	–	–	–	–
G7U G29C G43U G51A	< 1e-05	–	< 1e-05	–	–

Variant	self-cleavage kobs at 40 uM GlcN6P (glucosamine-6-phosphate [1]) [s⁻¹]	self-cleavage kobs at 640 uM GlcN6P (glucosamine-6-phosphate [2]) [s⁻¹]	self-cleavage kobs at 10000 uM GlcN6P (glucosamine-6-phosphate [3]) [s⁻¹]	self-cleavage kobs at 160 uM GlcN6P (glucosamine-6-phosphate [4]) [s⁻¹]	self-cleavage kobs at 2500 uM GlcN6P (glucosamine-6-phosphate [5]) [s⁻¹]
G7U G29C G59C	< 1e-05	–	–	–	–
G7U G32A U47C G51A G60A	< 1e-05	–	< 1e-05	–	–
G7U G35C U55G A64C	< 1e-05	–	–	–	–
G7U G38A A48G G60C	< 1e-05	–	–	–	–
G7U G40U A48U G66U C68A	< 1e-05	–	< 1e-05	–	–
G7U G41A	< 1e-05	< 1e-05	< 1e-05	< 1e-05	< 1e-05
G7U G41C G51C A64U	< 1e-05	–	< 1e-05	–	–
G7U G43A C67G C68U	< 1e-05	–	< 1e-05	–	–
G7U G44A	< 1e-05	< 1e-05	< 1e-05	–	< 1e-05
G7U G44C	< 1e-05	< 1e-05	< 1e-05	< 1e-05	< 1e-05
G7U G51A	< 1e-05	–	< 1e-05	< 1e-05	< 1e-05
G7U G51A U55A	< 1e-05	–	< 1e-05	< 1e-05	< 1e-05
G7U G59C	< 1e-05	< 1e-05	< 1e-05	< 1e-05	< 1e-05
G7U G66A C70U	< 1e-05	–	< 1e-05	–	–
G7U G66U	< 1e-05	< 1e-05	< 1e-05	–	< 1e-05
G7U U30C	< 1e-05	–	< 1e-05	–	< 1e-05
G7U U30C G60C C71U	< 1e-05	< 1e-05	–	–	< 1e-05
G7U U31A G32U G41U A48U	< 1e-05	–	–	–	–
G7U U31C G38C G51A C70U	< 1e-05	–	–	–	–
G7U U31G	< 1e-05	< 1e-05	< 1e-05	< 1e-05	< 1e-05
G7U U45G	< 1e-05	< 1e-05	< 1e-05	< 1e-05	< 1e-05
G7U U46C	< 1e-05	< 1e-05	–	< 1e-05	< 1e-05

Variant	self-cleavage kobs at 40 uM GlcN6P (glucosamine-6-phosphate [1]) [s⁻¹]	self-cleavage kobs at 640 uM GlcN6P (glucosamine-6-phosphate [2]) [s⁻¹]	self-cleavage kobs at 10000 uM GlcN6P (glucosamine-6-phosphate [3]) [s⁻¹]	self-cleavage kobs at 160 uM GlcN6P (glucosamine-6-phosphate [4]) [s⁻¹]	self-cleavage kobs at 2500 uM GlcN6P (glucosamine-6-phosphate [5]) [s⁻¹]
G7U U46G A52U G59U	< 1e-05	–	–	–	< 1e-05
G7U U47A C50U U57C G63A	< 1e-05	–	< 1e-05	–	–
G7U U47C	< 1e-05	< 1e-05	< 1e-05	< 1e-05	–
G7U U47G	< 1e-05	< 1e-05	< 1e-05	< 1e-05	–
G7U U49A A52C G60C C61U	< 1e-05	< 1e-05	< 1e-05	–	< 1e-05
G7U U57A	< 1e-05	< 1e-05	< 1e-05	< 1e-05	–
G7U U57C	< 1e-05	< 1e-05	< 1e-05	< 1e-05	–
C8A	< 1e-05	< 1e-05	< 1e-05	< 1e-05	< 1e-05
C8A A12C A15G C50U U56G G62U	< 1e-05	–	–	–	–
C8A A12U A39G	< 1e-05	< 1e-05	< 1e-05	–	–
C8A A14C	< 1e-05	< 1e-05	< 1e-05	< 1e-05	< 1e-05
C8A A14G U57C	< 1e-05	< 1e-05	–	–	< 1e-05
C8A A14U A15U G41C	< 1e-05	–	–	–	–
C8A A15U	< 1e-05	< 1e-05	< 1e-05	< 1e-05	< 1e-05
C8A A15U A36G	< 1e-05	–	–	–	–
C8A A33C	< 1e-05	< 1e-05	< 1e-05	< 1e-05	< 1e-05
C8A A39U	< 1e-05	< 1e-05	–	–	< 1e-05
C8A A42C	< 1e-05	< 1e-05	–	< 1e-05	–
C8A A48C	< 1e-05	< 1e-05	< 1e-05	< 1e-05	< 1e-05
C8A A52U	< 1e-05	< 1e-05	< 1e-05	< 1e-05	< 1e-05
C8A A64G	< 1e-05	< 1e-05	< 1e-05	< 1e-05	< 1e-05
C8A C10U A15G C61G	< 1e-05	–	–	–	–

Variant	self-cleavage kobs at 40 uM GlcN6P (glucosamine-6-phosphate [1]) [s⁻¹]	self-cleavage kobs at 640 uM GlcN6P (glucosamine-6-phosphate [2]) [s⁻¹]	self-cleavage kobs at 10000 uM GlcN6P (glucosamine-6-phosphate [3]) [s⁻¹]	self-cleavage kobs at 160 uM GlcN6P (glucosamine-6-phosphate [4]) [s⁻¹]	self-cleavage kobs at 2500 uM GlcN6P (glucosamine-6-phosphate [5]) [s⁻¹]
C8A C11A U54C	< 1e-05	–	–	–	< 1e-05
C8A C16G A52C	< 1e-05	–	< 1e-05	–	–
C8A C34G A64U	< 1e-05	–	< 1e-05	–	–
C8A C34U	< 1e-05	< 1e-05	< 1e-05	< 1e-05	< 1e-05
C8A C34U G41A U56A C70U	< 1e-05	–	–	–	–
C8A C61G	< 1e-05	< 1e-05	< 1e-05	< 1e-05	< 1e-05
C8A C61U	< 1e-05	< 1e-05	< 1e-05	–	–
C8A C71U	< 1e-05	< 1e-05	< 1e-05	< 1e-05	< 1e-05
C8A G9A G37C A42C A53G	< 1e-05	–	< 1e-05	–	< 1e-05
C8A G29A	< 1e-05	–	< 1e-05	–	–
C8A G29U G35U	< 1e-05	–	< 1e-05	–	–
C8A G35C A52G	< 1e-05	< 1e-05	< 1e-05	< 1e-05	< 1e-05
C8A G35C A53C C67G	< 1e-05	–	–	–	–
C8A G37C A39U	< 1e-05	–	< 1e-05	–	–
C8A G37C G62U	< 1e-05	< 1e-05	< 1e-05	–	–
C8A G41C A42U	< 1e-05	< 1e-05	< 1e-05	–	–
C8A G41U C50G	< 1e-05	–	–	–	–
C8A G44A U69G	< 1e-05	–	< 1e-05	–	–
C8A G51A	< 1e-05	–	–	–	< 1e-05
C8A G59U	< 1e-05	< 1e-05	< 1e-05	< 1e-05	–
C8A G63U	< 1e-05	< 1e-05	–	< 1e-05	< 1e-05

— the supplement of paper PMC7125110
